# Reference: the supplement of paper PMC7826260
# This is one part of the list. One pool of 16,384 single-stranded DNAs met each Rep nickase domain in vitro (1 h at 37 °C, 3 µM enzyme); the outer parts of the 90-letter strands are left off. Uncut reads are compared with the no-enzyme pool on a log2 scale; more negative means more cut, near 0 not cut, and no call is made. Reads are scaled to the total; values above 0 arise when much of the pool is cut.
# Legend:
# Test in all cases: uncleaved DNA left, log2 of reads against the no-enzyme library (log2 ratio); higher = less cleavage (more negative = more Rep cleavage of the k-mer); sequences stand for … in CTCGTCCG…ACCGGAGA
# [1] = test system: T1, Rep nickase domain of Muscovy duck circovirus
# T1 sequence (protein, residues 1-111, tag omitted): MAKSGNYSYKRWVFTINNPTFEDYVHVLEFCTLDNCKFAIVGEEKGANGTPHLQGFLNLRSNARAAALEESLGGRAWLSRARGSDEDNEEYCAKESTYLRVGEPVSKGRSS
# Procedure: (§1)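 A pool of 90-nt single-stranded DNAs with seven random bases just before the constant AC of the nick site (name = the seven bases) was cut by 3 µM recombinant His6-SUMO-tagged Rep nickase domain (300 nM DNA, 50 mM HEPES pH 8.0, 50 mM NaCl, 1 mM MnCl2, 1 h, 37 °C, three replicates). Uncut DNA was amplified and sequenced.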
# [2] = test system: T2, Rep nickase domain of banana bunchy top virus
# T2 sequence (protein, residues 1-94, tag omitted): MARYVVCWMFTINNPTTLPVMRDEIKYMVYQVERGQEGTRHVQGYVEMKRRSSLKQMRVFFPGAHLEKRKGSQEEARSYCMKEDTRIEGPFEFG
# Procedure: as §1
# [3] = test system: T3, Rep nickase domain of cabbage leaf curl virus
# T3 sequence (protein, residues 1-116, tag omitted): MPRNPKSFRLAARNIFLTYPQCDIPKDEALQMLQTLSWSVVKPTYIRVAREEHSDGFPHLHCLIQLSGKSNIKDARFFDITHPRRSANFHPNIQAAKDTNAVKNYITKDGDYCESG
# Procedure: as §1
# [4] = test system: T4, Rep nickase domain of chickpea chlorotic dwarf virus
# T4 sequence (protein, residues 1-124, tag omitted): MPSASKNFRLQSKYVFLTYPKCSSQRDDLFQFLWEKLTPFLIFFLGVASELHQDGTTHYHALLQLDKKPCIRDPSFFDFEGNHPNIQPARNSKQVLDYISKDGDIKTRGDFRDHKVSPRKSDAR
# Procedure: as §1
# [5] = test system: T5, Rep nickase domain of faba bean necrotic yellows virus
# T5 sequence (protein, residues 1-98, tag omitted): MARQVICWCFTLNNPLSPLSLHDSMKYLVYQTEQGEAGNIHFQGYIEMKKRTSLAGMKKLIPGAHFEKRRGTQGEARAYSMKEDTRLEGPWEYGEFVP
# Procedure: as §1
# [6] = test system: T6, Rep nickase domain of maize striate mosaic virus
# T6 sequence (protein, residues 1-117, tag omitted): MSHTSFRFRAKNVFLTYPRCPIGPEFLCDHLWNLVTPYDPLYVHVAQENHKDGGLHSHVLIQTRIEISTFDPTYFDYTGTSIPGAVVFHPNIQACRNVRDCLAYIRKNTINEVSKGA
# Procedure: as §1
# [7] = test system: T7, Rep nickase domain of porcine circovirus 2
# T7 sequence (protein, residues 2-116, tag omitted): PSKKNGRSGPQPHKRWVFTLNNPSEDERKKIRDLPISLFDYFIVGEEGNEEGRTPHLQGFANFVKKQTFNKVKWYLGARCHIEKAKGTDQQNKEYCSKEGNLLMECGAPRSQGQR
# Procedure: as §1
# [8] = test system: T8, Rep nickase domain of tomato yellow leaf curl virus
# T8 sequence (protein, residues 1-136, tag omitted): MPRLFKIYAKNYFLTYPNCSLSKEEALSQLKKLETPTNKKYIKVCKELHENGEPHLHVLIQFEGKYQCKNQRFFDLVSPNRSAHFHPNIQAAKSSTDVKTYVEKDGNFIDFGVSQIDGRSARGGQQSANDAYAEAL
# Procedure: as §1
# [9] = test system: T9, Rep nickase domain of wheat dwarf virus
# T9 sequence (protein, residues 1-137, tag omitted): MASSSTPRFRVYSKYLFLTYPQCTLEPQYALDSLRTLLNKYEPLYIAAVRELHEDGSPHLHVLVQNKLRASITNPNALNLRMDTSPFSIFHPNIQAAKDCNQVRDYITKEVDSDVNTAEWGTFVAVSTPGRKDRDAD
# Procedure: as §1
Sequence,uncleaved DNA left (log2) [1],uncleaved DNA left (log2) [2],uncleaved DNA left (log2) [3],uncleaved DNA left (log2) [4],uncleaved DNA left (log2) [5],uncleaved DNA left (log2) [6],uncleaved DNA left (log2) [7],uncleaved DNA left (log2) [8],uncleaved DNA left (log2) [9]
ACCAAGA,-0.111,-0.0991,-0.141,-0.0999,0.0215,-1.11,0.0977,0.00595,-0.106
CAACTCT,-0.0668,0.00939,-1.92,-2.94,-0.0284,-1.13,-0.458,-0.158,-0.654
GAGTTGT,-0.153,-0.568,0.172,-0.171,-0.22,0.0795,-2.94,-0.00796,0.0723
GAGGAAC,-0.0924,-0.106,0.441,1.43,-0.118,1.78,0.0503,-0.00326,0.0947
AGCAATT,-0.00297,0.169,-0.053,-0.929,0.0982,0.536,-0.571,0.0616,0.0173
CAGTTAA,0.0241,-0.0562,-0.29,-0.63,-0.0499,-0.702,-2.96,-0.132,-0.00394
TAGCTGG,0.0879,0.0314,0.291,1.03,0.091,0.968,0.257,-0.0269,0.139
GAATCCA,-0.112,0.0619,-0.619,-1.53,-0.0584,0.452,-0.626,0.0147,-0.113
AGCTTCT,-0.369,-0.0893,-0.0123,-1.33,-0.00615,0.105,-2.43,0.0279,-0.072
AACGGAT,0.226,0.103,0.251,1.74,0.186,1.98,0.284,-0.0886,0.122
CTGTACG,0.178,-0.0405,-0.54,-0.3,-0.0431,-0.875,0.227,0.0145,-0.0596
ACAATCG,0.0747,0.0442,-0.478,0.87,0.128,-0.124,0.243,0.0975,0.0411
AGCAATA,0.0799,0.0452,-0.0398,-0.399,0.0483,0.381,-0.582,-0.0926,0.135
ATGTTGC,-0.015,-0.104,-0.629,-0.196,0.0454,-1.01,0.147,-0.0138,-0.123
TACGATG,0.0264,-0.0342,-0.174,0.0517,-0.0794,0.193,0.115,-0.0896,-0.0518
CGAAACT,0.0716,0.00614,-0.154,-2.24,-0.00838,-0.222,-0.168,0.106,0.19
AAACTCG,-0.0259,-0.014,-0.818,-0.768,0.0677,-1.16,0.108,-0.0402,-0.121
AGCCTAA,-0.0563,-0.0142,0.082,0.35,-0.106,0.338,-0.26,0.101,0.0979
CAACCTT,-0.0497,-0.0703,-1.72,-2.67,0.0307,-0.834,-1.56,0.0493,-0.373
CGGGGTT,0.0359,-0.0237,0.46,0.811,-0.121,1.69,-0.0536,-0.0784,-0.0268

Sequence,uncleaved DNA left (log2) [1],uncleaved DNA left (log2) [2],uncleaved DNA left (log2) [3],uncleaved DNA left (log2) [4],uncleaved DNA left (log2) [5],uncleaved DNA left (log2) [6],uncleaved DNA left (log2) [7],uncleaved DNA left (log2) [8],uncleaved DNA left (log2) [9]
CCCGGTC,0.0107,0.0262,0.618,1.55,0.146,1.46,0.182,0.0315,0.0307
AAGCAAG,0.0296,0.0459,-0.447,-0.569,0.0167,-1.01,0.323,0.0658,0.092
GCTAGAA,-0.00728,-0.0453,0.164,0.514,0.00186,0.0588,0.0142,0.014,-0.0359
GGTTACC,0.0657,0.101,0.394,0.695,0.047,1.68,-0.0497,0.133,0.0446
CGCCAGA,0.0232,0.0645,0.0988,0.158,-0.0326,-0.31,0.156,0.0416,0.0741
CCCCGCT,-0.061,-0.0814,-0.309,-1.11,-0.135,-0.918,-0.101,-0.112,-0.209
GTATCGG,-0.0551,-0.00823,0.488,1.44,0.000558,2,0.00479,-0.0307,-0.0668
GGCAAAA,0.145,0.208,0.649,1.5,0.00695,1.79,0.32,0.209,0.248
CGGGAAA,-0.00625,0.105,0.767,1.77,0.0533,2,0.253,-0.0117,0.233
GTGTATG,0.387,0.112,0.256,0.583,0.178,0.335,0.348,0.229,0.247
GAGCCTT,-0.0784,-0.0372,0.526,0.475,0.0205,1.65,-1.7,0.0951,0.244
AGGATAC,0.123,0.095,0.0277,0.306,0.176,-0.338,0.273,0.0161,0.165
GCTGGAC,0.11,0.151,0.725,1.87,-0.0148,2.1,0.233,0.132,0.187
GAAGAAT,0.207,0.236,0.31,0.853,0.025,1.67,0.115,0.041,0.169
CTCCGTC,-0.022,-0.0404,0.0928,0.0611,0.0118,0.26,0.0698,-0.108,-0.0897
ATTTGGC,0.000739,-0.138,-0.551,-0.595,-0.148,-1.23,0.113,-0.0467,-0.11
GGAGTAA,-0.0257,0.069,0.441,1.16,0.02,1.85,0.033,0.0808,0.0889
ACGCCAA,-0.0348,0.0929,-0.107,-0.0525,0.158,-0.313,0.07,-0.189,-0.144
TATGATG,0.0477,-0.0375,-0.189,-0.295,-0.0963,-0.532,0.00925,-0.106,-0.0829
GTCGAAT,-0.0283,0.125,0.31,0.798,0.0275,1.66,-0.0338,0.0407,0.164

Sequence,uncleaved DNA left (log2) [1],uncleaved DNA left (log2) [2],uncleaved DNA left (log2) [3],uncleaved DNA left (log2) [4],uncleaved DNA left (log2) [5],uncleaved DNA left (log2) [6],uncleaved DNA left (log2) [7],uncleaved DNA left (log2) [8],uncleaved DNA left (log2) [9]
ACGGGAA,-0.0361,-0.00684,0.0924,0.593,-0.0136,0.338,0.174,-0.0276,-0.0447
AGTGACT,0.104,0.0446,0.0294,0.712,-0.015,1.71,-0.0584,-0.036,0.0607
CTCGGGA,0.0765,-0.0274,0.231,0.647,-0.00507,0.545,-0.0974,-0.0157,0.0152
TCGACCA,0.0777,0.0779,0.12,-0.0209,0.0831,0.119,-0.00434,0.134,0.136
CGATCCG,-0.168,-0.0595,-0.718,-0.378,-0.0432,-0.945,0.104,-0.0242,-0.141
CTGCGTC,-0.0151,-0.0494,-0.711,-0.731,-0.0242,-1.08,0.00386,-0.103,-0.26
GAGCGGC,0.0145,-0.0147,0.0357,0.483,0.0185,0.912,-0.00149,-0.112,-0.0088
TTAACCC,-0.379,-0.0901,-0.0655,-1.76,-0.117,-0.302,-1.21,-0.0101,-0.0347
TATATTA,-0.0144,-0.0895,-0.103,-2.11,0.0625,-0.416,-0.304,0.0917,-0.0707
GGCCCAA,0.0965,0.265,0.607,1.38,0.188,1.94,0.195,0.221,0.346
TGCACAC,-0.0139,0.114,0.234,0.514,0.0157,0.601,0.0246,0.0112,0.0929
TGCTGTT,-2.47,-0.206,-0.36,-1.25,-0.0285,0.457,-3.03,-0.0265,-0.295
CCTTCCT,-0.494,-0.205,-0.229,-2.38,-0.00899,-0.671,-1.12,-0.15,-0.18
GTGCTGA,0.0301,0.0903,0.205,0.946,-0.0425,1.42,0.145,0.00473,0.177
TTCCGGT,-0.155,-0.148,0.439,0.648,-0.0284,1.44,0.017,-0.127,-0.13
TGCCTCT,-0.00786,-0.0925,-0.0203,-1.49,-0.167,-0.268,-0.202,-0.0806,-0.0388
AGGTTAA,0.0398,0.102,-0.00504,0.107,-0.147,0.16,-0.0514,-0.0097,0.0665
CTGACAG,-0.0812,0.0326,-0.187,-0.0556,0.0238,-0.57,0.0452,0.0152,-0.0324
ATCTGTC,0.0638,-0.034,-0.0879,0.228,-0.153,0.0736,-0.0208,-0.0948,-0.065
CATATTG,0.164,-0.00682,-0.556,-0.574,0.109,-1.12,0.231,-0.0625,-0.076
